# B1: Toll/interleukin-1 receptor domain-containing adapter protein (Homo sapiens), P58753 (parent)
# chain: MASSTSLPAPGSRPKKPLGKMADWFRQTLLKKPKKRPNSPESTSSDASQPTSQDSPLPPSLSSVTSPSLPPTHASDSGSSRWSKDYDVCVCHSEEDLVAAQDLVSYLEGSTASLRCFLQLRDATPGGAIVSELCQALSSSHCRVLLITPGFLQDPWCKYQMLQALTEAPGAEGCTIPLLSGLSRAAYPPELRFMYYVDGRGPDGGFRQVKEAVMRYLQTLS
# Variants of: B1
# Details: with myd88_human MYD88, Q99836
row,Variant,effect of a mutation on the interaction
1,MASSTSLPAPGSRPKKPLGKMADWFRQTLLKKPKKRPNSPESTSSDASQPTSQDSPLPPSLSSVTSPSLPPTHASDSGSSRWSKDYDVCVCHSEEDLVAAQDLVSYLEGSTASLRCFLQLRDATPGGAIVSELCQALSSSHCRVLLITPGFLQDAWCKYQMLQALTEAPGAEGCTIPLLSGLSRAAYPPELRFMYYVDGRGPDGGFRQVKEAVMRYLQTLS [P155A],with no effect
2,MASSTSLPAPGSRPKKPLGKMADWFRQTLLKKPKKRPNSPESTSSDASQPTSQDSPLPPSLSSVTSPSLPPTHASDSGSSRWSKDYDVCVCHSEEDLVAAQDLVSYLEGSTASLRCFLQLRDATPGGAIVSELCQALSSSHCRVLLITPGFLQDPACKYQMLQALTEAPGAEGCTIPLLSGLSRAAYPPELRFMYYVDGRGPDGGFRQVKEAVMRYLQTLS [W156A],with no effect
3,MASSTSLPAPGSRPKKPLGKMADWFRQTLLKKPKKRPNSPESTSSDASQPTSQDSPLPPSLSSVTSPSLPPTHASDSGSSRWSKDYDVCVCHSEEDLVAAQDLVSYLEGSTASLRCFLQLRDATPGGAIVSELCQALSSSHCRVLLITPGFLQDPWCKAQMLQALTEAPGAEGCTIPLLSGLSRAAYPPELRFMYYVDGRGPDGGFRQVKEAVMRYLQTLS [Y159A],with no effect
4,MASSTSLPAPGSRPKKPLGKMADWFRQTLLKKPKKRPNSPESTSSDASQPTSQDSPLPPSLSSVTSPSLPPTHASDSGSSRWSKDYDVCVCHSEEDLVAAQDLVSYLEGSTASLRCFLQLRDATPGGAIVSELCQALSSSHCRVLLITPGFLQDPWCKYQMAQALTEAPGAEGCTIPLLSGLSRAAYPPELRFMYYVDGRGPDGGFRQVKEAVMRYLQTLS [L162A],disrupting interaction strength
5,MASSTSLPAPGSRPKKPLGKMADWFRQTLLKKPKKRPNSPESTSSDASQPTSQDSPLPPSLSSVTSPSLPPTHASDSGSSRWSKDYDVCVCHSEEDLVAAQDLVSYLEGSTASLRCFLQLRDATPGGAIVSELCQALSSSHCRVLLITPGFLQDPWCKYQMLQAATEAPGAEGCTIPLLSGLSRAAYPPELRFMYYVDGRGPDGGFRQVKEAVMRYLQTLS [L165A],disrupting interaction strength

# The remaining lines, values ahead:
row,effect of a mutation on the interaction,Variant
1,decreasing interaction strength,MASSTSLPAPGSRPKKPLGKMADWFRQTLLKKPKKRPNSPESTSSDASQPTSQDSPLPPSLSSVTSPSLPPTHASDSGSSRWSKDYDVCVCHSEEDLVAAQDLVSYLEGSTASLRCFLQLRDATPGGAIVSELCQALSSSHCRVLLITPGFLQDPWCKYQMLQALTEAPGAEGCTIPLLSGLSRAAYPAELRFMYYVDGRGPDGGFRQVKEAVMRYLQTLS [P189A]
2,with no effect,MASSTSLPAPGSRPKKPLGKMADWFRQTLLKKPKKRPNSPESTSSDASQPTSQDSPLPPSLSSVTSPSLPPTHASDSGSSRWSKDYDVCVCHSEEDLVAAQDLVSYLEGSTASLRCFLQLRDATPGGAIVSELCQALSSSHCRVLLITPGFLQDPWCKYQMLQALTEAPGAEGCTIPLLSGLSRAAYPPELRAMYYVDGRGPDGGFRQVKEAVMRYLQTLS [F193A]
3,with no effect,MASSTSLPAPGSRPKKPLGKMADWFRQTLLKKPKKRPNSPESTSSDASQPTSQDSPLPPSLSSVTSPSLPPTHASDSGSSRWSKDYDVCVCHSEEDLVAAQDLVSYLEGSTASLRCFLQLRDATPGGAIVSELCQALSSSHCRVLLITPGFLQDPWCKYQMLQALTEAPGAEGCTIPLLSGLSRAAYPPELRFAYYVDGRGPDGGFRQVKEAVMRYLQTLS [M194A]

# Variants of: B1
# Details: with myd88_human MYD88, Q99836
# Remark: another data set of the same source
row,Variant,effect of a mutation on the interaction
1,MASSTSLPAPGSRPKKPLGKMADWFRQTLLKKPKKRPNSPESTSSDASQPTSQDSPLPPSLSSVTSPSLPPTHASDSGSSRWSKDYDVCVCHSEENLVAAQDLVSYLEGSTASLRCFLQLRDATPGGAIVSELCQALSSSHCRVLLITPGFLQDPWCKYQMLQALTEAPGAEGCTIPLLSGLSRAAYPPELRFMYYVDGRGPDGGFRQVKEAVMRYLQTLS [D96N],disrupting interaction strength
2,MASSTSLPAPGSRPKKPLGKMADWFRQTLLKKPKKRPNSPESTSSDASQPTSQDSPLPPSLSSVTSPSLPPTHASDSGSSRWSKDYDVCVCHSEEDLVAAQDLVSYLEGSTASLRCFLQLRDATPGGAIVSELCQALSSSHCRVLLITPGFLQDPWCKYQMLQALTEAPGAEGCTIPLLLGLSRAAYPPELRFMYYVDGRGPDGGFRQVKEAVMRYLQTLS [S180L],with no effect

# Reference: IntAct's records for PubMed 21873236
